Assay results taken from patent publication CN114716553A (BEIJING KENUO XINCHENG TECH CO LTD, dated 2022).

Experiments:
[1] = target: T1, 人LILRB4 (on LILRB4-positive cells) (human, UniProt Q8NHJ6 22-448); test: flow cytometry on THP-1 cells
T1 construct: whole, on cells; also called 人LILRB4阳性细胞THP-1细胞; 人LILRB4阳性细胞RPMI-8226细胞

[2] = target: T1, 人LILRB4 (on LILRB4-positive cells); test: cell-based or functional assay
[3] = target: T2, 人LILRB4重组蛋白(购于义翘，Cat.16742-H08H) (human, UniProt Q8NHJ6 22-259); test: BLI (Octet QKe), antibody captured on AHC probe, antigen 100 nM, 1:1 Langmuir fit
T2 construct: Bought protein; also called human LILRB4 recombinant protein

| Binder | EC50 [1] [nM] | EC50 of T cell activation (LILRB4 Effector Reporter cells with APOE/TCR Activator/CHO cells, luciferase) [2] [nM] | Kd [3] [nM] | koff [3] [s⁻¹] | kon [3] [M⁻¹ s⁻¹] |
| --- | --- | --- | --- | --- | --- |
| chD5 (Fc fusion, Camel VHH fused to human Fc, expressed in HEK293; also called chD5嵌合抗体) QVQLQESGGGSVQAGGSLRLSCATSGDTYSTLCMGWFRQAPGKEREGVAAIYRGGDSTVYADSVKGRFTISQDNAKNTVYLQMNGLKPEDTAIYYCAASSLGRCAADIRTGPPFWAVGFRYWGQGTQVTVSSAS[letters of human IgG1 Fc with changes omitted] | 0.31 | 0.043 | – | – | – |
| chH9 (Fc fusion, Camel VHH fused to human Fc, expressed in HEK293; also called chH9嵌合抗体) QVQLQESGGGSVQAGGSLRLSCAVSEYVYSRCTMAWYRQAPGKERELVSAFDSGETTWYADSVKGRFTISQDNAKNTVYLQMNSLKPEDTAMYYCNTVGVKSVKSGGGSWCFSPDYWGQGTQVTVSSAS[letters of human IgG1 Fc with changes omitted] | 0.44 | 0.064 | – | – | – |
| chD2 (Fc fusion, Camel VHH fused to human Fc, expressed in HEK293, Protein A purified; also called chD2嵌合抗体; chD2重组蛋白) QVQLQESGGGSVQAGGSLRLSCTASGYTASSDYMGWFRQAPGKKREGVACINTNGGETYHANSVSGRFTISRDNAKNTVYLQMNSLKPDDTAMYYCAVGRTNPDSYGGSRCLLAPEYTYWGQGTQVTVSSAS[letters of human IgG1 Fc with changes omitted] | 0.27 | – | 0.312 | 9.3e-05 | 298000 |
| chC6 (Fc fusion, Camel VHH fused to human Fc, expressed in HEK293; also called chC6嵌合抗体) QVQLQESGGGLVQPGGSLRLSCAASGLAFSRYYMSWVRQAPGKGLEWVSGIRSDGLSTSYADSVKGRFTISRDNAKNTLFLQMNNLKSEDTALYYCATGVGDSGDYRGQGTQVTVSSAS[letters of human IgG1 Fc with changes omitted] | 0.22 | – | – | – | – |
| chC7 (Fc fusion, Camel VHH fused to human Fc, expressed in HEK293; also called chC7嵌合抗体) QVQLQESGGGSVQAGGSLRLSCAASEYTYSRHCMAWFRQAPGKEREGVATIYTGGGITRYADSVKGRFTISQDNAKNTVYLQMNSLKPEDTAMYYCAADIASRACVTDPFPLKHAQFSSWGQGTQVTVSSAS[letters of human IgG1 Fc with changes omitted] | 0.39 | – | – | – | – |
